# The whole screen tested about 110,000 compounds, of which about 230 (0.21%) showed an effect of 50% or more. The list shows a part of the results.
# Target: DPAP1 (Plasmodium falciparum, UniProt Q8IIJ9)
# Experiment: primary screen, percent inhibition; read by cleavage of a fluorogenic dipeptide substrate; higher = more effect of the substance
# Parameters: species or system P. falciparum D10 trophozoite lysates; single well
# 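Further: 30 min substrate incubation versus DMSO and 10 µM JCP410 controls.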
# Sequence of DPAP1 (Q8IIJ9 whole entry, looked up): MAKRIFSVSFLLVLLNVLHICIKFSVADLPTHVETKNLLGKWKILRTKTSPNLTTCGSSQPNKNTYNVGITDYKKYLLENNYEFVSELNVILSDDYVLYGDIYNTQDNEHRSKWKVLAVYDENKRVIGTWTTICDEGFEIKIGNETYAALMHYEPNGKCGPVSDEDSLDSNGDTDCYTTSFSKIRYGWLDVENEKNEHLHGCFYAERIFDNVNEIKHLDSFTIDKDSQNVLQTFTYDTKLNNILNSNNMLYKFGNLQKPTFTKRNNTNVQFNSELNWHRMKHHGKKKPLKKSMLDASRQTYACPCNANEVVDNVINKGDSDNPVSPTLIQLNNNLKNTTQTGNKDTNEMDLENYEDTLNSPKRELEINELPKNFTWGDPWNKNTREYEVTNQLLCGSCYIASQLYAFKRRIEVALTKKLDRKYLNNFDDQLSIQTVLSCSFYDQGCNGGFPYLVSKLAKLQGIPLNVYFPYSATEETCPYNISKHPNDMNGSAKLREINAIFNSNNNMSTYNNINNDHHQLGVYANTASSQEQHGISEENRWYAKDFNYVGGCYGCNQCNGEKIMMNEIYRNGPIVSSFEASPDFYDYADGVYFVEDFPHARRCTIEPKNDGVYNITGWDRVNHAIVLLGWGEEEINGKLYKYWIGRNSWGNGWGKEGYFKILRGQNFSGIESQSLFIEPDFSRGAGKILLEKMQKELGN
row,Compound,% Inhibition @ 10 uM [%]
1,CC(NC(=O)C(=O)NCc1ccc(Cl)cc1)c1ccccc1 (stereo not shown),-4.01
2,COc1ccccc1C1C2=C(O)CC(C)(C)CC2=NC(C)=C1C(=O)Nc1c(F)cccc1F (stereo not shown),-5.34
3,COc1cc(OC)cc(C(=O)Nc2ccc(F)c(Cl)c2)c1,3.44
4,O=C1c2cccnc2C(=O)N1Cc1ccc(S(=O)(=O)NCCc2ccc(Cl)cc2)s1,-3.66
5,Cc1ccccc1OCC(=O)Nc1cccnc1,-4.72
6,O=C(NCCN1CCN(Cc2ccccc2)CC1)C1c2ccccc2C(=O)N2CCc3ccccc3C12 (stereo not shown),0.231
7,O=C(O)C1C2CCC(O2)C1C(=O)Nc1cccc(O)c1 (stereo not shown),0.231
8,COc1cc(/C=C2/C(=N)N3C=C(C)SC3=NC2=O)ccc1OCc1cc(=O)n2nc(C)sc2n1,-7.65
9,O=C(CN1C(=O)c2ccccc2C1=O)Nc1ccc(Cl)cn1,1.37
10,COc1cccc(N2CCN(Cc3cccc(Oc4ccc(Cl)cc4)c3)CC2)c1,-5.31
11,CCn1c2ccccc2c2cc(CN3CCCC3)ccc21,-2.21
12,CCCN(CCO)CC1CCCCC1,-0.0494
13,O=C(NCc1ccccc1Cl)C1CCN(S(=O)(=O)c2ccc(F)cc2)CC1,-1.92
14,Cc1ccc(OCCCCN2CCCCC2)cc1C,2.8
15,Cc1ccc2c(CNCc3ccccc3F)c(C(=O)O)n(Cc3cccc(F)c3)c2c1,-6.22
16,Cc1ccc2oc(-c3ccc(C)c(NC(=O)c4ccc(Cl)cc4Cl)c3)nc2c1,-0.693
17,O=C(O)CCC(=O)Nc1sc2c(c1C(=O)Nc1ccccc1)CCC2,2.69
18,CC12CC3CC(C)(C1)CC(NC(=O)SCc1ccccc1)(C3)C2,-1.5
19,O=C(NCCCN1CCCC1=O)C1CCN(c2nnc(-n3cccc3)s2)CC1,-4.04
20,CCn1nc(C)c(NC(=O)c2cccc(C)c2)c1C,-5.92
21,CCSc1nc2c(c(=O)n(C)c(=O)n2C)n1Cc1ccc(Cl)cc1,3.05
22,O=C(NCc1ccccn1)C(Cc1ccccc1)NS(=O)(=O)c1cccc2nsnc12 (stereo not shown),-3.23
23,COc1ccc(C(=O)NC(Cc2ccccc2)c2ccccc2)c(OC)n1 (stereo not shown),-5.03
24,CCc1nn(-c2cc(Oc3ccc(C)cc3)ncn2)c(N)c1C#N,-2.24
25,Cc1ccc(-n2ncnc2-c2cccc(Cl)c2Cl)cc1Cl,5.2

row,Compound,% Inhibition @ 10 uM [%]
1,CCc1ccc(-n2nc(C)c3c(C)cc(=O)n(CC(=O)NCc4ccc(OC(C)C)cc4)c32)cc1,3.97
2,COC(=O)c1sc(N2C(=O)c3oc4cc(C)c(C)cc4c(=O)c3C2c2ccc(F)cc2)nc1C (stereo not shown),-1.55
3,COc1cc(C(=O)Nc2ncc(Cc3ccc(F)cc3)s2)cc(OC)c1OC,-17.7
4,CNC(=O)CN(c1cccc(OC)c1)S(=O)(=O)c1ccccc1,-1.95
5,CCN1CCCC1CNS(=O)(=O)c1c(C)nc2scc(C)n2c1=O (stereo not shown),-1.02
6,Cc1ccccc1Cc1c(C)nc2nc(SCC(=O)NCCC(C)C)nn2c1C,-1.29
7,O=C(COc1ccc(F)cc1)NCCN1CCOCC1,-1.04
8,COc1ccc(Br)cc1/C=c1/sc2nc3ccccc3n2c1=O,6.12
9,Oc1nc(-c2ccccc2Cl)c2cc(Br)ccc2n1,0.962
10,CCOC(=O)C1=C(C)N(Cc2ccco2)C(=O)C1(NC(=O)c1ccccc1)C(F)(F)F (stereo not shown),-2.63
11,CC1CCCCN1CCCNC(=O)Cn1nc(-c2ccccc2)ccc1=O (stereo not shown),1.97
12,CCOc1nc(NC(=O)NS(=O)(=O)Oc2ccc(F)cc2)nc(-c2ccccc2)n1,-0.924
13,COC(=O)C1=C(C)N(C)C(C)=C(C(=O)OC)C1c1ccc(C(=O)OC)cc1,-8.04
14,COc1ccc(NC2=NC(=O)/C(=C\c3ccc(OC)c(OC)c3OC)S2)cc1,-4.13
15,O=C(CN1C(=O)CSc2ncccc21)N1CCN(C2CCCCC2)CC1,-6.01
16,c1ccc2c(OCCCn3ccnc3)cccc2c1,4.6
17,C=CCOc1ccc(/C=C2/SC(=O)N(CN3CCCCC3)C2=O)cc1,-9.45
18,CN1CCCN(CC2CC=CCC2)CC1 (stereo not shown),-0.603
19,O=C(CCCn1sc2ccccc2c1=O)N1CCN(Cc2ccc3c(c2)OCO3)CC1,3.68
20,CC(C)CCn1cnc2c(NCc3ccccc3)ncnc21,-3.27
21,Cc1ccc(-c2cc(C(=O)N3CCC4(CC3)OCCO4)[nH]n2)cc1,-7.15
22,N#CCNC(=O)[C@H](Cn1ccnn1)NC(=O)OCc1ccccc1,-5.2
23,CCc1ccccc1NC(=O)Cc1cccs1,-2.18
24,Cc1ccc(NC(=O)COc2ccc(C)cc2C)nc1,3.24
25,CCN1CCN(Cc2ccc(Br)s2)CC1,3.1

row,Compound,% Inhibition @ 10 uM [%]
1,Cc1ccc(NS(=O)(=O)c2ccc(Cl)cc2)cc1,-4.08
2,c1ccc2c(c1)OCC(CNc1nnc(Cc3ccncc3)c3ccccc13)O2 (stereo not shown),0.44
3,CC(=O)c1nn(-c2cccc(Br)c2)c(-c2ccco2)c1C#N,-1.64
4,Cc1ccc(NS(=O)(=O)c2ccc(C(C)(C)C)cc2)cn1,-7.25
5,CCN(CC)c1nc(N)nc(-c2cc(Cl)ccc2OC)n1,2.27
6,CCCOc1ccc(C2C(C(=O)c3cc4ccccc4o3)=C(O)C(=O)N2CCN(C)C)cc1 (stereo not shown),-3.36
7,CCn1c2ccccc2c2cc(CN3CCC(C(N)=O)CC3)ccc21,-4.75
8,Cc1c(Cl)cccc1Nc1nc(N)nc(CSc2ncccn2)n1,0.583
9,C=CC(=C)CC(NC)c1ccccc1 (stereo not shown),6.24
10,CCOc1ccc2c(c1)c(C(C)=O)c(C)n2-c1ccccc1,-1.47
11,C#CCSc1nc2sc3c(c2c(=O)n1C)CCC3,2.38
12,O=C1c2ccncc2C(=O)N1c1ccc(Br)cc1,-5.23
13,Cn1c(=O)c2sccc2n2c(CCCC(=O)N3CCC(C(N)=O)CC3)nnc12,1.02
14,CCCC1=C(C(=O)OCC)C(c2ccc(OC)c(OC)c2)NC(=O)N1 (stereo not shown),2
15,CC(C)Cn1cc(NC(=O)NCc2ccc(F)cc2)c2ccccc2c1=O,3.26
16,CC(C)N(C)C1CCN(S(=O)(=O)c2csc(C(N)=O)c2)CC1,-5.31
17,COc1ccccc1/C=C/C1=NC(=C\c2cccc(OC)c2OC)/C(=O)O1,1.28
18,Cc1c(-c2ccccc2)cn2c1-c1ccc(C)n1CC2,6.24
19,Cc1ccc(S(=O)(=O)NC(CC(=O)O)c2cccs2)cc1 (stereo not shown),3.64
20,Oc1ccc2c(CN3CCOCC3)c(O)ccc2c1CN1CCOCC1,-3.92
21,CCC(C)NC(=O)C1CCN(S(=O)(=O)N2CCOCC2)CC1 (stereo not shown),1.85
22,CCC1CCCCN1C(=O)c1cn(CC)c(=O)c2cc(OC)c(OC)cc12 (stereo not shown),2.64
23,Cc1ccc(CNC(=O)C(C)n2c(=O)cc(C)c3c(C)nn(-c4ccccc4)c32)o1 (stereo not shown),-2.11
24,CC(=O)N[C@H]1[C@H](OCCCN2C(=O)c3ccccc3C2=O)O[C@H](CO)[C@@H](O)[C@@H]1O,6.31
25,CCOc1ccc2oc(=O)cc(CN3CCN(C(=O)c4ccccc4)CC3)c2c1,-1.07

row,Compound,% Inhibition @ 10 uM [%]
1,CN(C)CCCN(CCCN(C)C)Cc1ccc(Cl)c(Cl)c1,-2.34
2,CCc1nn(C(C)C(=O)NCCCN2CCCC2=O)c(=O)c2cc3occc3n12 (stereo not shown),-5.63
3,COc1ccc(C(=O)NCC(=O)Nc2nc3ccccc3s2)cc1,-6.74
4,COc1cc(-c2nc(S(=O)(=O)c3ccc(C)cc3)c(N3CCOCC3)o2)cc(OC)c1OC,-1.32
5,Cc1ccc(-c2cc(C(=O)N3CCCCCC3)c3ccccc3n2)o1,14.6
6,COC(=O)c1cc2c(Cl)nc3ccc(C)cc3c2s1,3.54
7,CC(C)(C)OC(=O)N1CCC(c2c(C(=O)Nc3cccnc3)cnn2-c2ccccc2Cl)CC1,5.25
8,COc1ccccc1NC(=O)C1=C(C)N=C2CC(C)(C)CC(O)=C2C1c1cccc(OC)c1OC (stereo not shown),1.35
9,COCCCNC(=O)CCN1N=C(c2ccc(OC)cc2)CCC1=O,-0.0542
10,C=CCN1C(=O)[C@H]2Cc3c([nH]c4ccccc34)[C@@H](c3ccc(O)cc3)N2C1=S,3.05
11,COCc1cc(C2C(C#N)=C(N)OC3=C2C(=O)CC(C)(C)C3)ccc1OC (stereo not shown),-7.4
12,Cc1ccccc1CN1C(=O)C(=O)c2ccccc21,-2.53
13,O=C(c1nc(-c2ccncc2)no1)N1CCC2(CC1)OCCO2,-5.05
14,COc1ccc(/N=C2\SC(CC(=O)Nc3ccc(F)cc3)C(=O)N2C)cc1 (stereo not shown),-5.23
15,CSCCC(NC(=O)/C(=C/c1ccc(Cl)cc1)NC(=O)c1ccccc1)C(=O)O (stereo not shown),-1.19
16,Cc1cc(C)c(C(N)=O)c(Nc2cc(Cl)ccc2Cl)n1,-3.09
17,COc1ccc(C2C(C#N)=C(N)Oc3[nH]nc(C45CC6CC(CC(C6)C4)C5)c32)cc1OC (stereo not shown),5.87
18,CCOc1ccc(C2CC(=O)N=C(NC(=O)c3cccc(F)c3)N2)cc1 (stereo not shown),-3.3
19,COc1ccc(CC(=O)Nc2ccc(Nc3ccccc3)cc2)cc1,3.8
20,OCc1c(O)cnc2ccccc12,-3.65
21,Oc1ccc(Cl)cc1-c1cnc2ccccc2n1,-3.85
22,Cc1ccc(CN(C(=O)/C=C\C(=O)O)C(C)(C)C)cc1,1.7
23,CCOc1ccc2nc(NC(=O)c3cccc(C)c3)sc2c1,-5.3
24,N#Cc1c2n(c3c(=O)n(Cc4ccccc4)cnc13)CCCC2,1.41
25,COc1cccc2c1NC(c1ccc([N+](=O)[O-])cc1)C1CC=CC21 (stereo not shown),13.1
